Reference: PubChem BioAssay AID504832 (National Center for Advancing Translational Sciences (NCATS), 2011)
In all, about 310,000 compounds went through this assay and about 18,000 (5.8%) were called active. This list was built around the results that the source calls inconclusive (neither active nor inactive); the mix of calls is not that of the screen. Calls follow the shape of the dose curve; as a rule, active = well fitted inhibition curve with a large enough effect; inconclusive = small, poorly fitted or top-dose-only effect, or another doubt; inactive = no such curve, though single readings can be large or run the other way. Potencies of inconclusive entries are left out as doubtful fits.

Test: Primary qHTS for delayed death inhibitors of the malarial parasite plastid, 48 hour incubation
Conditions: P. falciparum luciferase growth in erythrocytes; series mostly up to 28.7 µM
In short: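 Cell-based growth assay: transgenic P. falciparum expressing firefly luciferase, cultured in red cells within RPMI 1640 containing 0.5% w/v Albumax, 24 mM bicarbonate and gentamycin. A drop in luciferase activity indicates inhibition.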
Potency is read from the fitted curve at half-maximal effect; tags tell the direction and shape of the fitted curve.

Question: Which Potency does the source give for `COCCNC(=O)CCc1ccc(S(=O)(=O)Nc2ccc(C)cc2)cc1` here?
Answer: The Potency was “inactive”.

Question: For `O=C1c2cccc(Sc3ccccc3)c2C(=O)c2c(Sc3ccccc3)cccc21`, which Potency is on record?
Answer: Its Potency is active: 13.1 µM.

Question: For `COc1ccc(C(=O)c2no[n+]([O-])c2C(=O)c2ccc(OC)cc2)cc1`, which Potency is on record?
Answer: Its Potency is inconclusive [inhibitor, single point].

Question: With `CS(=O)(=O)c1nc(S(=O)(=O)c2ccc(Cl)cc2)c(NCc2ccccn2)s1` as the compound, how does the Potency read?
Answer: The Potency was inconclusive [inhibitor, single point].

Question: With `COC(=O)c1ccc(NC(=O)CN2CCN(c3ccccn3)CC2)cc1` as the compound, how does the Potency read?
Answer: Its Potency is inconclusive [inhibitor, single point].

Question: For `CCN1CCN(c2ccc(S(=O)(=O)N3CCCCC3)cc2NC(=O)c2ccc([N+](=O)[O-])o2)CC1`, which Potency is on record?
Answer: Its Potency is active: 13.1 µM.

Question: For `CCOc1ccc(C(=O)N2CCc3ccccc32)cc1OCC`, which Potency is on record?
Answer: Its Potency is inconclusive [inhibitor, partial curve, poor fit].

Question: With `Cc1ccc(N(CC(=O)Nc2ccccc2C(=O)NCc2ccco2)S(=O)(=O)c2ccccc2)cc1C` as the compound, how does the Potency read?
Answer: The Potency was active: 10.4 µM.

Question: Which Potency does the source give for `c1ccn(-c2ccc(N3CCOCC3)cc2)c1` here?
Answer: Its Potency is inconclusive [inhibitor, single point].

Question: Which Potency does the source give for `Cc1cc(=O)oc2c(C)c(OC(C)C(=O)NCc3ccccn3)ccc12` (configuration not stated) here?
Answer: Its Potency is inconclusive [inhibitor, single point].

Question: With `Cc1nc2ccccc2c(=O)n1-c1ccc(NS(=O)(=O)c2ccc(F)cc2F)cc1` as the compound, how does the Potency read?
Answer: The Potency was inconclusive [inhibitor, single point].

Question: With `COc1ccc(C2Nc3ccccc3C(=O)N2Cc2ccccc2)cc1COc1ccc(Cl)cc1Cl` (configuration not stated) as the compound, how does the Potency read?
Answer: Its Potency is active: 1.65 µM.

Question: Which Potency does the source give for `COCCn1c(=O)c2c(nc3n2CC(C)CN3Cc2ccccc2)n(C)c1=O` (configuration not stated) here?
Answer: The Potency was inconclusive [inhibitor, single point].

Question: With `O=C(c1ccc(Cl)c(S(=O)(=O)N2CCCC2)c1)N1CCN(c2ccc(F)cc2)CC1` as the compound, how does the Potency read?
Answer: The Potency was inconclusive [inhibitor, single point].

Question: With `COc1cc(-c2nc(-c3ccccc3)c(-c3ccc(F)cc3)[nH]2)cc2c1OCO2` as the compound, how does the Potency read?
Answer: The Potency was inconclusive [inhibitor, partial curve, poor fit].

Question: For `CCOc1ccc(Br)cc1S(=O)(=O)NC1CCCC1`, which Potency is on record?
Answer: Its Potency is inconclusive [inhibitor, partial curve].

Question: Which Potency does the source give for `Cc1ccc(COn2c(-c3ccc(Cl)cc3)nc3ccc([N+](=O)[O-])cc32)cc1` here?
Answer: The Potency was “inactive”.

Question: Which Potency does the source give for `Cc1nc(SCC(=O)NCCc2ccccc2)n[nH]1` here?
Answer: Its Potency is “inactive”.

Question: With `O=C(O)COc1ccc(/C=N/NC(=O)c2cccc3ccccc23)cc1` as the compound, how does the Potency read?
Answer: Its Potency is inconclusive [inhibitor, full curve, poor fit].

Question: Which Potency does the source give for `C=CCn1c(SCc2nc3c(c(=O)[nH]c(=O)n3CCCC)n2CCC)nnc1-c1ccccc1` here?
Answer: The Potency was active: 8.28 µM.

Question: For `Cc1cccc(S(=O)(=O)c2c(N)n(-c3ccccc3)c3nc4ccccc4nc23)c1`, which Potency is on record?
Answer: Its Potency is inconclusive [inhibitor, partial curve, poor fit].

Question: With `N=C(N)SCc1cccc2ccccc12` as the compound, how does the Potency read?
Answer: The Potency was active: 9.28 µM.
